Values joined by “and” are separate entries in the source; they are usually repeats but may differ in a detail not shown here. Equal entries are not always repeated. Where two headings read alike, the source gives them in different places.
Columns and labels:
Assay in all cases: microbe, parasite or virus in culture
Format in all cases: cell-based
[1] = test system: IIIB strain of HIV-1 (wild-type)
[2] = test system: HIV-1 variant strain with K103N/Y181C mutations in RT
[3] = test system: HIV-1 variant strain with Y181C mutation in RT
[4] = Human immunodeficiency virus 1, IIIB, MT2, Table 4, 50% protection in MT-2 cells, NA = EC50 > CC50, read-out: WT EC50
[5] = Human immunodeficiency virus 1, MT2, read-out: K103N/Y181C EC50, Table 4, 50% protection in MT-2 cells, NA = EC50 > CC50
[6] = Human immunodeficiency virus 1, MT2, Table 4, 50% protection in MT-2 cells, NA = EC50 > CC50, read-out: Y181C EC50
[7] = Human immunodeficiency virus 1, IIIB, MT2, Table 3, 50% protection in MT-2 cells, NA = EC50 > CC50, read-out: WT EC50
[8] = MT-2 cell assay, read-out: EC50 towards wild-type HIV-1
[9] = Human immunodeficiency virus 1, MT2, read-out: 103N181C EC50, Table 3, 50% protection in MT-2 cells, NA = EC50 > CC50
[10] = Human immunodeficiency virus 1, MT2, read-out: EC50 towards K103N/Y181C variant, MT-2 cell assay
[11] = Human immunodeficiency virus 1, MT2, Table 3, 50% protection in MT-2 cells, NA = EC50 > CC50, read-out: Y181C EC50
[12] = Human immunodeficiency virus 1, MT2, text, MT-2 cell assay
[13] = Human immunodeficiency virus 1, IIIB, MT2, Table 1, 50% protection in MT-2 cells, NA = EC50 > CC50, read-out: WT EC50
[14] = Human immunodeficiency virus 1, MT2, read-out: 103N181C EC50, Table 1, 50% protection in MT-2 cells, NA = EC50 > CC50
[15] = Human immunodeficiency virus 1, MT2, Table 1, 50% protection in MT-2 cells, NA = EC50 > CC50, read-out: Y181C EC50
[16] = Human immunodeficiency virus 1, IIIB, MT2, text, MT-2 cell assay, read-out: EC50 towards wild-type HIV-1

| Structure (SMILES) | EC50 [1, 4] [nM] | EC50 [2, 5] [nM] | EC50 [3, 6] [nM] | EC50 [1, 13] [nM] | EC50 [2, 14] [nM] | EC50 [3, 15] [nM] | also measured |
| --- | --- | --- | --- | --- | --- | --- | --- |
| O=c1ccn(CCOc2ccccc2Oc2cc(Cl)cc3cc(Cl)ccc23)c(=O)[nH]1 [14d, 1-(2-(2-((3,6-dichloronaphthalen-1-yl)oxy)phenoxy)ethyl)pyrimidine-2,4(1H,3H)-dione] | 38 | 520 | 430 | – | – | – | – |
| N#Cc1ccc2c(Oc3ccccc3OCCn3ccc(=O)[nH]c3=O)cccc2c1 [14e, 5-(2-(2-(2,4-dioxo-3,4-dihydropyrimidin-1(2H)-yl)ethoxy)phenoxy)-2-naphthonitrile] | 0.53 | 15 | 19 | – | – | – | EC50 [1, 7]: 0.53 nM; EC50 [1, 8]: 0.5 nM; EC50 [2, 9]: 15 nM; EC50 [2, 10]: ~10 nM; EC50 [3, 11]: 19 nM; EC50 [3, 12]: < 20 nM |
| N#Cc1ccc2c(Oc3ccc(F)cc3OCCn3ccc(=O)[nH]c3=O)cc(Cl)cc2c1 [14g, 7-chloro-5-(2-(2-(2,4-dioxo-3,4-dihydropyrimidin-1(2H)-yl)ethoxy)-4-fluorophenoxy)-2-naphthonitrile] | 4.5 | 46 | 5.3 | – | – | – | – |
| N#Cc1cc2c(Oc3ccccc3OCCn3ccc(=O)[nH]c3=O)cc(F)cn2c1 [10d, 8-(2-(2-(2,4-dioxo-3,4-dihydropyrimidin-1(2H)-yl)ethoxy)phenoxy)-6-fluoroindolizine-2-carbonitrile] | – | – | – | 0.7 | 68 | 170 | activity towards the wild-type virus, in words ([1]; MT-2 cell assay): high picomolar inhibitors; EC50 [3, 12]: 170 nM |
| N#Cc1cc2c(Oc3cc(F)c(F)cc3OCCn3ccc(=O)[nH]c3=O)cc(F)cn2c1 [10l, 8-(2-(2-(2,4-dioxo-3,4-dihydropyrimidin-1(2H)-yl)ethoxy)-4,5-difluorophenoxy)-6-fluoroindolizine-2-carbonitrile] | – | – | – | 6.8 | 230 | 1200 | – |
| N#Cc1cc2c(Oc3ccccc3OCCn3ccc(=O)[nH]c3=O)cc(Cl)cc2[nH]1 [8f, 6-chloro-4-(2-(2-(2,4-dioxo-3,4-dihydropyrimidin-1(2H)-yl)ethoxy)phenoxy)-1H-indole-2-carbonitrile] | 340 | 2700 | 27000 | 340 | 2700 | 27000 | EC50 [1, 16]: 340 nM |
| N#Cc1ccc2c(Oc3ccc(Cl)cc3OCCn3ccc(=O)[nH]c3=O)cc(F)cc2c1 [14m, 5-(4-chloro-2-(2-(2,4-dioxo-3,4-dihydropyrimidin-1(2H)-yl)ethoxy)phenoxy)-7-fluoro-2-naphthonitrile] | 5 | 150 | 32 | – | – | – | – |
| N#Cc1cc2cccc(Oc3ccc(F)cc3OCCn3ccc(=O)[nH]c3=O)n2c1 [11a, 5-(2-(2-(2,4-dioxo-3,4-dihydropyrimidin-1(2H)-yl)ethoxy)-4-fluorophenoxy)indolizine-2-carbonitrile] | – | – | – | 17 | 1300 | 6900 | – |
| N#Cc1ccc2c(Oc3ccc(Cl)cc3OCCn3ccc(=O)[nH]c3=O)cc(Cl)cc2c1 [14h, 7-chloro-5-(4-chloro-2-(2-(2,4-dioxo-3,4-dihydropyrimidin-1(2H)-yl)ethoxy)phenoxy)-2-naphthonitrile] | 11 | 280 | 49 | – | – | – | – |
| N#Cc1ccc2c(Oc3ccccc3OCCn3ccc(=O)[nH]c3=O)cc(Cl)cc2c1 [14f, 7-chloro-5-(2-(2-(2,4-dioxo-3,4-dihydropyrimidin-1(2H)-yl)ethoxy)phenoxy)-2-naphthonitrile] | 2.2 | 7.5 | 13 | – | – | – | EC50 [2, 10]: < 20 nM; EC50 [3, 12]: < 20 nM |
| O=c1ccn(CCOc2ccccc2Oc2cccc3ccccc23)c(=O)[nH]1 [14a, 1-(2-(2-(naphthalen-1-yloxy)phenoxy)ethyl)pyrimidine-2,4(1H,3H)-dione] | 60 | 5000 | 5700 | – | – | – | – |
| N#C/C=C/c1cc(Cl)cc(Oc2ccccc2OCCn2ccc(=O)[nH]c2=O)c1 [1c, (E)-3-(3-chloro-5-(2-(2-(2,4-dioxo-3,4-dihydropyrimidin-1(2H)-yl)ethoxy)phenoxy)phenyl)acrylonitrile] | 0.31 | 24 | 46 | – | – | – | EC50 [1, 16]: 0.32 nM |
| N#Cc1ccc2c(Oc3ccc(F)cc3OCCn3ccc(=O)[nH]c3=O)cc(F)cc2c1 [14l, 5-(2-(2-(2,4-dioxo-3,4-dihydropyrimidin-1(2H)-yl)ethoxy)-4-fluorophenoxy)-7-fluoro-2-naphthonitrile] | 1.9 | 21 | 5.6 | – | – | – | EC50 [1, 7]: 1.9 nM; EC50 [1, 16]: 0.4 to 0.5 nM; EC50 [2, 9]: 21 nM; EC50 [2, 10]: ~10 nM; EC50 [3, 11]: 5.6 nM |
| N#Cc1cc2c(Oc3ccc(F)cc3OCCn3ccc(=O)[nH]c3=O)cc(Cl)cn2c1 [10i, 6-chloro-8-(2-(2-(2,4-dioxo-3,4-dihydropyrimidin-1(2H)-yl)ethoxy)-4-fluorophenoxy)indolizine-2-carbonitrile] | – | – | – | 2.5 | 110 | 160 | EC50 [3, 12]: 160 nM |
| N#Cc1ccc2c(Oc3ccc(F)cc3OCCn3ccc(=O)[nH]c3=O)cccc2c1 [14i, 5-(2-(2-(2,4-dioxo-3,4-dihydropyrimidin-1(2H)-yl)ethoxy)-4-fluorophenoxy)-2-naphthonitrile] | 0.49 | 48 | 10 | – | – | – | EC50 [1, 7]: 0.49 nM; EC50 [1, 16]: 0.4 to 0.5 nM; EC50 [1, 8]: ~0.5 nM and 0.5 nM; EC50 [2, 9]: 48 nM; EC50 [2, 10]: ~10 nM; EC50 [3, 11]: 10 nM |
